Measured values: patent US8318743B2, “Medicament for the enhancement of cognitive function and neuroprotection” (Egis Gyogyszergyar Nyilvanosan Mukodo Reszvenytarsasag, priority 2006, dated 2012)

Assays:
Male SPRD rats [1] = assay: scopolamine-induced memory deficit in eight-arm radial maze; assay type: in vivo, rat; details: for degradation of memory resulting from scopolamine treatment: 0.01 mg/kg intraperitoneally, all three parameters
Excerpt: The eight-arm radial maze test is suitable for the study of learning and memory processes and also for the screening of drug candidates influencing such processes.
The apparatus consists of an octagonal central stage (diameter 30 cm, height 25 cm) and eight arms of 70 cm length having 11 cm height attached to the central stage and having their opposite end closed by a feed container. The base of the maze is stainless steel, the walls and the ceiling are made of plexiglass. The feed containers are made of stainless steel.
The light-dark cycle of the animals is 12-12 hours, and the light is switched on at 7:00 am. The test were carried out in the light cycle (between 9:00 am and 3:00 pm).
During the so-called dietetic period, the animals are partially fasted, since the famish drive is used for learning. Therefore animals are kept on a diet consisting of 2 piece of standard feed pellet/day for one week. After one week, the body weight of the animals reaches approximately 80 to 85% of that of the normally fed animals.
During the acclimatizing period, the animals are placed in the maze for 10 minutes on the first two days. Each feed container is filled with a small piece of biscuit. Animals are provided with feed after visiting the maze only.
During the learning period, which lasts for 10 to 12 days, the animal should learn to find all pieces of biscuits in the maze and to avoid entering those arms are which have already been visited. After spending five minutes in the maze, the animals are returned into their cages where the daily feed portion is served.
The aim of the selection phase performed after the learning phase is that only those animals would be selected to participate the experiment which have learned the task, i.e. which animal errs maximum once from three trials (TE<=1 and ICR>=7, t<=5 minutes). The movement of the animal was monitored using a video camera, which was set up in the neighboring room.
During the actual testing, the animals were divided into three groups: C (control), S (scopolamine) and T (test). The animals of group C as absolute controls were treated i.p. with a vehicle (0.4% methylcellulose, pre-treatment time 40 minutes) and subcutaneously with solvent (saline, pre-treatment time: 30 minutes). Groups S was treated i.p. with a vehicle and subcutaneously with 0.5 mg/kg scopolamine. […] Group T was treated intraperitoneally with 0.01 mg/kg dose of 4-chloro-5-{2-[4-(6-fluoro-1,2-benz[d]isoxazole-3-yl)piperidin-1-yl]ethyl-amino}-2-methyl-3-(2H)pyridazinone or 0.01 mg/kg risperidone, respectively and with 0.5 mg/kg dose of scopolamine subcutaneously.
During the testing, the animals were placed in the maze individually, and their movement was monitored using a video camera. When the animals completed their task, they were removed from the maze.
The evaluation of the results comprised the determination of the following variables: number of initial correct answers; number of total errors (TE error); number of arms which were entered multiple occasions (WM error), number of arms which were not entered (RM error), number of arms entered before the first error (ICR). […] The RM error indicates the damage of the reference memory, since the animal cannot recall which arms should be entered (in the present test, all of them).
The statistical evaluation was carried out by variance analysis. The differences between groups were determined by Duncan-test.

Male SPRD rats [2] = details: for Dead cerebral volume mm^3 ± SE: 48 hours after surgery; for Effect %: dead cerebral volume versus control
[3] = 0.01 mg/kg intraperitoneally + 0.5 mg/kg scopolamine
[4] = 0.01 mg/kg ip 30 minutes after surgery
[5] = 0.03 mg/kg ip 30 minutes after surgery
[6] = 0.1 mg/kg ip 30 minutes after surgery
[7] = 0.3 mg/kg ip 30 minutes after surgery
[8] = scopolamine 0.5 mg/kg alone (group S, vehicle i.p.)

Structure (SMILES)	ICR (number of initial correct responses) (Male SPRD rats [1]; [3])	TE (number of total errors) (Male SPRD rats [1]; [3])	WME (number of working memory errors) (Male SPRD rats [1]; [3])	degradation of memory resulting from scopolamine treatment (Male SPRD rats [1])	Dead cerebral volume mm^3 ± SE (Male SPRD rats [2]; [4]) [mm^3]	Effect % (Male SPRD rats [2]; 0.01 mg/kg ip) [%]	cerebral infarct size (Male SPRD rats [2]; 0.03 mg/kg i.p.)	Dead cerebral volume mm^3 ± SE (Male SPRD rats [2]; [5]) [mm^3]	Effect % (Male SPRD rats [2]; 0.03 mg/kg ip) [%]	Dead cerebral volume mm^3 ± SE (Male SPRD rats [2]; [6])	Effect % (Male SPRD rats [2]; 0.1 mg/kg ip) [%]	Dead cerebral volume mm^3 ± SE (Male SPRD rats [2]; [7])	Effect % (Male SPRD rats [2]; 0.3 mg/kg ip) [%]	cerebral infarct size (Male SPRD rats [2]; dosage range 0.01-0.3 mg/kg ip.)	TE (number of total errors) (Male SPRD rats [1]; [8])	WME (number of working memory errors) (Male SPRD rats [1]; [8])
Cn1ncc(NCCN2CCC(c3noc4cc(F)ccc34)CC2)c(Cl)c1=O [Formula (I), 4-chloro-5-{2-[4-(6-fluoro-1,2-benz[d]isoxazole-3-yl)piperidine-1-yl]ethyl-amino}-2-methyl-3-(2H)pyridazinone]	6 ± 0.4	2.3 ± 0.5^+	1.5 ± 0.5^+	significantly prevented the degradation of memory	64.33 ± 7.66	0	decreased the cerebral infarct size in statistically significant manner	45.70 ± 4.11	−29	62.63 ± 4.86* mm^3	−15	61.79 ± 2.69* mm^3	−16	–	–	–
Cc1nc2n(c(=O)c1CCN1CCC(c3noc4cc(F)ccc34)CC1)CCCC2 [Risperidone, 3-(2-(4-(6-fluoro-1,2-benz[d]isoxazole-3-yl)-1-piperidinyl)-ethyl)-6,7,8,9-tetrahydro-2-methyl-4H-pyrido[1,2-a]pyrimidin-4-one]	–	6.0 ± 0.3	4.2 ± 0.3	did not show a significant effect	65.91 ± 6.08	−1	–	69.09 ± 5.71	4	62.17 ± 5.17 mm^3	−8	72.07 ± 5.48 mm^3	7	ineffective	–	–
CN1[C@@H]2C[C@@H](OC(=O)[C@H](CO)c3ccccc3)C[C@H]1[C@@H]1O[C@@H]12 [Scopolamine]	–	–	–	–	–	–	–	–	–	–	–	–	–	–	5.6 ± 0.9	4.6 ± 1.2

Like-named read-outs stand apart in the source and are kept apart here. Marks after values point to notes of the source that are not given here.
